According to patent publication US20190359693A1:

Legend:
Assay in all cases: cell-based or functional assay
[1] = target: hemagglutinin (HA) of influenza virus B/Brisbane/60/08 (Victoria) (influenza B virus)
[2] = target: hemagglutinin (HA) of influenza virus B/Florida/04/06 (Yamagata) (influenza B virus)
[3] = target: hemagglutinin (HA) of influenza virus B/Harbin/7/94 (Yamagata) (influenza B virus)
[4] = target: hemagglutinin (HA) of influenza virus B/Lee/40 (Old) (influenza B virus)
[5] = target: hemagglutinin (HA) of influenza virus B/Malaysia/2506/04 (Victoria) (influenza B virus)
[6] = target: hemagglutinin (HA) of influenza virus H10N7 A/Chick/Germany/N/49 (influenza A virus)
[7] = target: hemagglutinin (HA) of influenza virus H11N9 A/Northern Pintail/MPC2085/07 (influenza A virus)
[8] = target: hemagglutinin (HA) of influenza virus H1N1 A/California/07/09 (influenza A virus)
[9] = target: hemagglutinin (HA) of influenza virus H1N1 A/New Caledonia/20/99 (influenza A virus)
[10] = target: hemagglutinin (HA) of influenza virus H1N1 A/Puerto Rico/8/34-MA (influenza A virus)
[11] = target: hemagglutinin (HA) of influenza virus H2N2 A/Guiyang/1/57 (influenza A virus)
[12] = target: hemagglutinin (HA) of influenza virus H3N2 A/Brisbane/10/07 (influenza A virus)
[13] = target: hemagglutinin (HA) of influenza virus H3N2 A/HK/1/68-MA (influenza A virus)
[14] = target: hemagglutinin (HA) of influenza virus H3N2 A/Wisconsin/67/05 (influenza A virus)
[15] = target: hemagglutinin (HA) of influenza virus H4 A/WF/HK/MPA892/06 (influenza A virus)
[16] = target: hemagglutinin (HA) of influenza virus H5N1 A/Vietnam/1194/04 (influenza A virus)
[17] = target: hemagglutinin (HA) of influenza virus H6N1 A/Eurasian Wigeon/MPG1884/09 (influenza A virus)
[18] = target: hemagglutinin (HA) of influenza virus H7N3 A/NIBRG/60 (A/mallard/Netherlands/12/00) (influenza A virus)
[19] = target: hemagglutinin (HA) of influenza virus H7N7 A/PR8 H7N7-NY (influenza A virus)
[20] = target: hemagglutinin (HA) of influenza virus H7N9 A/Anhui/1/13 (influenza A virus)
[21] = target: hemagglutinin (HA) of influenza virus H7N9 A/Shanghai/2/13 (influenza A virus)
[22] = target: hemagglutinin (HA) of influenza virus H8N4 A/Eurasian Wigeon/MPH571/08 (influenza A virus)
[23] = target: hemagglutinin (HA) of influenza virus H9N2 A/HK/466419/09 (influenza A virus)
[24] = target: hemagglutinin (HA) of influenza A/Aichi/2/68 (H3N2) (influenza A virus)
[25] = target: hemagglutinin (HA) of influenza A/WSN/33 (H1N1) (influenza A virus)
[26] = target: hemagglutinin (HA) of influenza B/Brisbane/60/08 (Victoria) (influenza B virus)
[27] = target: hemagglutinin (HA) of influenza B/Lee/40 (Old) (influenza B virus)

B1: MD2617 (Fc fusion)
chain: EVQLVESGGGLVQPGGSLRLSCAVSISIFDIYAMDWYRQAPGKQRDLVATSFRDGSTNYADSVKGRFTISRDNAKNTLYLQMNSLKPEDTAVYLCHVSLYRDPLGVAGGMGVYWGKGALVTVSSAAA[gap - human IgG1 Fc]GGGGSGGGGSEVQLVESGGGLVQPGGSLKLSCAASGFTFSTSWMYWLRQAPGKGLEWVSVINTDGGTYYADSVKDRFTISRDNAKDTLYLQMSSLKSEDTAVYYCAKDWGGPEPTRGQGTQVTVSS
- average neutralization titer [1]: 2.1 nM
- average neutralization titer [2]: 2.5 nM
- average neutralization titer [3]: 7.5 nM
- average neutralization titer [4]: 1.4 nM
- average neutralization titer [5]: 8.3 nM
- average neutralization titer [6]: 21.1 nM
- average neutralization titer [7]: 21.1 nM
- average neutralization titer [8]: 1.8 nM
- average neutralization titer [9]: 8.4 nM
- average neutralization titer [10]: 6.3 nM
- average neutralization titer [11]: 31.8 nM
- average neutralization titer [12]: 27.5 nM
- average neutralization titer [13]: 118 nM
- average neutralization titer [14]: 499 nM
- average neutralization titer [15]: 35.5 nM
- average neutralization titer [16]: 4.7 nM
- average neutralization titer [17]: 25.1 nM
- average neutralization titer [18]: 72.1 nM
- average neutralization titer [19]: 301 nM
- average neutralization titer [20]: 380 nM
- average neutralization titer [21]: 391 nM
- average neutralization titer [22]: 12.5 nM
- average neutralization titer [23]: 25.1 nM

B2: MD3609 (Fc fusion)
chain: EVQLVESGGGLVQPGGSLRLSCAVSISIFDIYAMDWYRQAPGKQRDLVATSFRDGSTNYADSVKGRFTISRDNAKNTLYLQMNSLKPEDTAVYLCHVSLYRDPLGVAGGMGVYWGKGALVTVSSGGGGSGGGGSEVQLVESGGGLVQAGGSLKLSCAASGRTYAMGWFRQAPGKEREFVAHINALGTRTYYSDSVKGRFTISRDNAKNTEYLEMNNLKPEDTAVYYCTAQGQWRAAPVAVAAEYEFWGQGTQVTVSSGGGGSGGGGSEVQLVESGGGLVQPGGSLRLSCAATGFTLENKAIGWFRQTPGSEREGVLCISKSGSWTYYTDSMRGRFTISRDNAENTVYLQMDSLKPEDTAVYYCATTTAGGGLCWDGTTFSRLASSWGQGTQVTVSSGGGGSGGGGSEVQLVESGGGLVQPGGSLKLSCAASGFTFSTSWMYWLRQAPGKGLEWVSVINTDGGTYYADSVKDRFTISRDNAKDTLYLQMSSLKSEDTAVYYCAKDWGGPEPTRGQGTQVTVSSAAA[gap - human IgG1 Fc]
- Average neutralization titers [24]: 10.9 nM
- Average neutralization titers [25]: 5.5 nM
- Average neutralization titers [26]: 4.1 nM
- Average neutralization titers [27]: 21.9 nM
